A collection of fitness landscapes (doi:10.1016/j.celrep.2020.107928)
In all, about 81,000 sequences were measured (“one-hybrid fitness for binding parS DNA”: median about -0.17, highest 2% from about 0.51 on). The list shows a part of the results.

B1: Caulobacter ParB omega fusion; a variant is named by its letters at X, in order, B8GW30 (parent)
chain: MESVVVGEPGMSEGRRGLGRGLSALLGEVDAAPAQAPGEQLGGSREAPIEILQRNPDQPRRTFREEDLEDLSNSIREKGVLQPILVRPSPDTAGEYQIVAGERAWRAAQRAGLKTVPIMVRELDDLAVLEIGIIENVQRADLNVLEEALSYKVLMEKFERTQENIAQTIGKSXSHVANXMRLLXLPDEVQSYLVSGELTAXHARAIAAAADPVALAKQIIEGGLSVRETEALARKAPNLSAGKSKGGRPPRVKDTDTQALESDLSSVLGLDVSIDHRGSTGTLTITYATLEQLDDLCNRLTRGI

Variants of: B1
Assay: one-hybrid fitness for binding parS DNA (scaled: cognate 1, non-cognate 0); higher = stronger binding
Conditions: with parS DNA site
Procedure, shortened: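 Selection: bacterial one-hybrid in E. coli USO, HIS3 reporter with the site 19 bp from the promoter, 48 hours at 37°C on M9-minus-histidine plus 0.1 mM IPTG and 5 mM 3-AT. Libraries were Caulobacter ParB with four randomised specificity codons, sequenced on Illumina before and after selection. Fitness is the rescaled log change in variant-to-wild-type read ratio, anchored to the cognate and non-cognate sites.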

one-hybrid fitness for binding parS DNA, 0.877:
RCRS

one-hybrid fitness for binding parS DNA, 0.212:
RVWD

one-hybrid fitness for binding parS DNA, 0.607:
RRVT

one-hybrid fitness for binding parS DNA, ≤ 0.2:
HCIG
MPSC
QIPN
CNKY
HFPG
RAYI
WWRS
DIQV
VRNL
SRVK
TWPG
EWTV
PFAH
WAMY
TCAG
SRSY
FTSF
DRMY
HTYS
HQMG
KIWS
FRTS
KTAG
AQLI
AVNG
VGNG
WFNT
KRRR
ILAG
PLKY
SGAF
VTQI
YQSV
QRGM
IRFC
FSES
WTLF
CWIS
QRPM
YCAG
QMGV
FNQS
WQRS
PQRA
AVVH
PDGD
IQHR
ACKR
MELF
LKSS
TINY
HILR
SQPR
ESVV
NYFA
VSCY
MRAV
NESC
RNPE
HVQI
ASKR
CARL
EHRK
PIRG
HVLV
PVHV
HPRS
EWPP
ADAV
IRSR
TFCT
AYAD
PGGL
ILQP
VARL
QDVY
CCSW
WSMR
HTPM
GVDG
QYDV
DGYC
QMMC
RRTI
HWSG
PWQG
GPVD
SEIW
MRWT
SVLC
SSLH
VADQ
RSMP
PHPG
YAAS
ALVC
TSWN
RWTR
TKGC
SLVC
CFHS
VNDR
SFMN
HNDG
TYMT
YYFF
AGNG
RRKE
QPHY
LCYS
FGGS
WAYG
TGRE
ALPD
TNVF
AMYC
PVQP
FVHC
MIIT
DAAF
EDLG
LAAF
QDVM
WGRT
DAPL
CVLK
KTVK
LADF
ELYS
MPPY
RPNW
SPMT
FMRS
FPLR
PCMI
QKWR
QAPC
QYCK
CSVY
VGLG
ERRI
HHTR
TDWG
GSSE
ENTV
PAGG
DKCT
HNHL
SGMC
PDRT
DTLK
PAYY
PACK
LVQC
LMKE
RAIH
KLMC
TLCL
RQQW
QEYM
CQQC
CARG
VHAF
RDER
TMFV
TTVN
PNSW
LITL
TVIS
RIRP
DMGS
MKES
SRAF
DNYC
PKKM
VLIP
GQSK
IVLI
NNVN
WHYR
HVKR
TCLR
SENS
KSHM
TLMG
TMQN
CTSG
WMCG
QQHC
GITS
WIST
QNRF
PKSD
MALT
RAPW
MTTY
NHES
HGTK
RAPN
NQEL
PREN
FKSG
GGCL
AGKT
QTEC
AYVT
TNHS
ATQR
AWHL
STPD
SLHS
LYDR
VALL
ELVT
GEDM
RGMR
CWSY
KGKR
GARR
SRNE
TCSC
VCEA
YNYS
YRCV
VDEW
PLIY
TCRM
GIYR
PSLR
HYVE
DYSR
CKKV
SWSS
AMYG
VLLY
KAIT
YTPC
QAMV
IYGT
VKAC
IGLW
NFGR
MADF
AMFN
WKIS
WKDG
VYWG
RMMK
EQWS
QIWP
SSRC
PAQW
NGMI
YPSD
KKGD
NVCW
ISPK
GAVR
KISD
NACT
EKGR
HCLQ
LWPR
VAPY
SCSF
LSHN
RPQW
CPTK
VGHH
YHIR
RFRP
QWAS
RGER
CQWC
PTWG
KWGC
AILW
HVCS
QISK
QWRK
AMRH
DTMT
NFQR
RSIL
PYKL
KPTV
IDAG
NEFC
GSPR
VCVC
EFNL
MPPV
FCQL
GYRG
GDAD
FHST

one-hybrid fitness for binding parS DNA, 0.499:
RHVA

one-hybrid fitness for binding parS DNA, 0.645:
RLRY

one-hybrid fitness for binding parS DNA, 0.288:
HRNC

one-hybrid fitness for binding parS DNA, 0.26:
RVWW

one-hybrid fitness for binding parS DNA, 0.906:
RRWG

one-hybrid fitness for binding parS DNA, 0.346:
RNHN

one-hybrid fitness for binding parS DNA, 0.405:
RCWM
